In paper PMC4336329 (PLoS ONE, 2015):
Hit rate of the full screen: of about 310,000 compounds, about 2,200 (0.71%) showed an effect of 50% or more. The effect is printed as a negative number. Some of the results follow.

Molecular target: human ether-à-go-go-related gene (hERG) potassium channel (human, UniProt Q12809)
Assay: primary screen, population patch clamp on CHO cells stably expressing hERG

Chain of human ether-à-go-go-related gene (hERG) potassium channel (Q12809 whole entry, looked up): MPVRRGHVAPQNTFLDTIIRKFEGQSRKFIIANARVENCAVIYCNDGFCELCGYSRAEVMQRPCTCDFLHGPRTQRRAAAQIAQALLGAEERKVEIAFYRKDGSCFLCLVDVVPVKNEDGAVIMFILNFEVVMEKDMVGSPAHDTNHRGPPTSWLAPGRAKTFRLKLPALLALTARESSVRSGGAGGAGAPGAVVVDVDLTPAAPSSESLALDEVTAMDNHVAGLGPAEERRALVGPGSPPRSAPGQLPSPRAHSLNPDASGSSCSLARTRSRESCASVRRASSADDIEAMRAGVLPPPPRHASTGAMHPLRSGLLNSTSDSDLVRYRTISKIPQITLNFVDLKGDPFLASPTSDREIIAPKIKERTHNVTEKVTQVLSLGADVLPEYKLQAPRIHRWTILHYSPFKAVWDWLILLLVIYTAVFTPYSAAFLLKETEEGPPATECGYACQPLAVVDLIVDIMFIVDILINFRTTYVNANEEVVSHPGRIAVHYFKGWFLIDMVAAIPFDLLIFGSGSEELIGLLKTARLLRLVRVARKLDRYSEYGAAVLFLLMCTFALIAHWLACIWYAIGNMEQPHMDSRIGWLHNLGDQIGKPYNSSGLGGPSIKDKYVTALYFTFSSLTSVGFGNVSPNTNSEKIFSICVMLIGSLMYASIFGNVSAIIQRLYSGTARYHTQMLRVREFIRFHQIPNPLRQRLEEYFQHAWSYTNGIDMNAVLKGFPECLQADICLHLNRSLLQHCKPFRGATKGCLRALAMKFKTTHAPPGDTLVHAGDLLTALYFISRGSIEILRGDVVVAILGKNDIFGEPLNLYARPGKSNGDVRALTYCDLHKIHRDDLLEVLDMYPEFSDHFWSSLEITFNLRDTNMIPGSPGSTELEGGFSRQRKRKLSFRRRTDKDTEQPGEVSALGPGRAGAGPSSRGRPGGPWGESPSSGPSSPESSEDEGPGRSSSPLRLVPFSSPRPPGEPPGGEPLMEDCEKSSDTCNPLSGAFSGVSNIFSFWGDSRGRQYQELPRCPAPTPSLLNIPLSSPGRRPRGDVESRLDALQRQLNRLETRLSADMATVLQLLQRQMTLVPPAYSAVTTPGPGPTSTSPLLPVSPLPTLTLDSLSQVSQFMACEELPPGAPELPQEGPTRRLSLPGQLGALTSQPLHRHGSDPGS

Compound | hERG current change (%, negative = inhibition) at 1uM
CN(CC(=O)Nc1ccc(Cl)cc1)C(=O)CCc1c[nH]c2ccccc12 | 0.427%
CCOC(=O)c1c(C)[nH]c(C(=O)Nc2cc(OCC)c(N3CCOCC3)cc2OCC)c1C | 8.3%
CC1CCN(C2=NC(=O)/C(=C/c3cccc(O)c3)S2)CC1 | -0.755%
COc1ccc(CCNC(=O)COC(=O)C2COc3ccccc3O2)cc1 (stereo not shown) | 5.78%
CNC(=O)NC(=O)CSc1nnc(-c2ccc(F)cc2)n1CC1CCCO1 (stereo not shown) | 12.3%
CN(C)CCCNC(=O)c1cc(S(=O)(=O)N2CCOCC2)ccc1F | -0.641%
CCN1CCN(C2=C(NS(=O)(=O)c3ccc(C)cc3)C(=O)c3ccccc3C2=O)CC1 | -28.3%
Cc1cc(C)c(OCC(=O)OCC(=O)NCCC2=CCCCC2)c(C)c1 | 11.7%
CCN1C(=O)[C@H]2[C@@H](c3ccc(-c4ccc(OC)cc4)cc3)N[C@@](C)(C(=O)OC)[C@H]2C1=O.O=C(O)C(F)(F)F | 8.99%
COc1ccc(-c2noc(Cc3cccs3)n2)cc1 | 8.43%
COc1ccc(/C=N/NC(=O)c2cc(OC)c(OC)c(OC)c2)cc1CN1CCc2cc(OC)c(OC)cc2C1C (stereo not shown) | -21.9%
c1ccc(CNc2nc(-c3cccnc3)nc3ccccc23)cc1 | 6.74%
Cc1cc(OCC(=O)OCC(=O)c2c(N)n(C)c(=O)n(C)c2=O)ccc1Cl | 2.89%
Cc1cccc(C)c1NC(=O)CS(=O)CC(=O)N1CCN(c2ccccc2)CC1 (stereo not shown) | 18.8%
CCOC(=O)CNC(=O)c1cc2c(=O)[nH]c3ccc(C)cc3c2s1 | 11.1%
CN(C)/C=N/C(=S)Nc1cc(Cl)cc(Cl)c1 | 13.8%
C/C(=N\O)C(=O)NCCCn1ccnc1 | 11.3%
COc1ccc(CCNC(=O)CCCCn2c(=O)[nH]c3ccccc3c2=O)cc1OC | 12.8%
O/N=C\c1ccc(-c2ccccc2)o1 | 0.81%
O=C(C1CCC(Cn2c(=S)[nH]c3ccccc3c2=O)CC1)N1CCN(c2ccccc2)CC1 (stereo not shown) | 18%
CN(CC(=O)Nc1cc([N+](=O)[O-])ccc1Cl)Cc1ccc(Br)cc1 | 3.97%
CCCCCCCCCCCCC/C=C/[C@@H](O)[C@@H](N)CO | 19.2%

Compound | hERG current change (%, negative = inhibition) at 1uM
Cc1ccccc1CS(=O)(=O)Cc1ccc(C(=O)N2CCC3(CC2)OCCO3)o1 | 14.6%
O=C(Cc1cccs1)Nc1nc2c(s1)CCCC2 | -1.28%
Cc1ccc(C)c(NC(=O)c2ccc(N(C)S(C)(=O)=O)cc2)c1 | -3.76%
C=C1CCN([C@@H](C)C(=O)OCc2ccc(C)cc2)S(=O)(=O)c2ccccc21 | 4.15%
Clc1ccc(-n2cccc2)cn1 | 14.8%
CCO[C@H]1OC(C(=O)N2CCN(Cc3ccc4c(c3)OCO4)CC2)=C[C@@H](c2ccc(C(F)(F)F)cc2)[C@@H]1CCCO | -2.19%
CCOc1ccc(/C(O)=C2/C(=O)C(=O)N(CCOCCO)C2c2ccccn2)cc1 (stereo not shown) | -1.13%
Cc1nn2c(-c3ccc(Cl)cc3)nnc2s1 | -4.67%
C=CCn1c(=O)c2c(nc(-n3nc(C)cc3C)n2C)n(C)c1=O | 30.1%
O=C1CC(c2ccccc2)CC(O)=C1C=NCc1ccco1 (stereo not shown) | -1.79%
Cc1nc(NC(=O)CSc2nc3cccnc3n2C2CCCCC2)sc1C | 9.77%
Cc1ccc(S(=O)(=O)N(C)C)cc1NC(=O)CCc1ccccc1 | -1.49%
Cc1cc(C)cc(NC(=S)N2CCN(c3ccccn3)CC2)c1 | 6.92%
COc1ccc(CNC(=O)C2CCCN2S(=O)(=O)c2ccc(C)cc2)cc1 (stereo not shown) | 0.173%
O=C(COC(=O)c1ccc2ccccc2c1O)NCc1ccccc1 | 10.9%
Cc1ccc2nc(NC(=O)CCCC(=O)O)sc2c1 | 13.2%
COc1ccc2[nH]c3c(c2c1)CCN1C(=O)N([C@@H](C)C(=O)NCCc2ccc(OC)c(OC)c2)C(=O)[C@]31C | -3.9%
Cl.Oc1cccc(C(O)CNCc2ccc(-c3ccccc3)cc2)c1 (stereo not shown) | -11.4%
O=C1c2ccccc2C2(c3ccc(F)cc3)NCCN12 (stereo not shown) | 8.5%
CN(c1ccc(C(=O)NCc2cccnc2)cc1)S(C)(=O)=O | 3.33%
Cc1ccnc(NC(=O)COC(=O)c2ccc(F)cc2F)n1 | 17.2%
Cc1cccnc1NC(=O)CSc1ncnc2sc(C)c(C)c12 | 13.8%

Compound | hERG current change (%, negative = inhibition) at 1uM
Cc1ccc(S(=O)(=O)n2nc(-n3c(C)ccc3C)c3c(F)cccc32)c2ccccc12 | 12.6%
COc1cc(/C=C/C(=O)OCC(=O)NCCN2C(=O)CSC2=O)ccc1OC(F)F | 3.09%
Cc1ccc(OCC(=O)NNC(=O)CSc2nnc(-c3ccc(C)cc3)n2C)cc1 | 7.24%
Cc1ccc(NCc2nnc(SCC(=O)Nc3cccc(O)c3)n2CC2CCCO2)c(C)c1 (stereo not shown) | -36.5%
COc1ccc(OC)c(S(=O)(=O)NC2CC(=O)N(c3ccc(C)c(C)c3)C2)c1 (stereo not shown) | 1.52%
CCCCn1c(N)c(N(CC(C)C)C(=O)C2CCC2)c(=O)[nH]c1=O | 4.79%
CCCCn1c(C)nc2c(=O)n(C)c(=O)[nH]c21 | 8.72%
COc1ccc(NC(=O)c2cncc(Br)c2)cc1S(N)(=O)=O | 1.84%
O=C(NCCCN1CCOCC1)c1ccccc1NS(=O)(=O)c1ccc(Br)cc1 | -7.95%
Cc1nn(-c2ccccc2)c(C)c1NC(=O)COC(=O)c1ccc(Cl)c(N)c1 | -2.92%
CN1CCN(Cc2nc3c(c(=O)n(C)c(=O)n3C)n2CCCc2ccccc2)CC1 | 5.38%
Cc1ccc(NC(=O)CN(c2ccc(C)cc2)S(=O)(=O)c2cccc3nonc23)cc1 | 1.85%
O=C1C2C(c3ccccc3)(C(=O)N1c1ccc(Cl)cc1)C2(c1ccccc1)c1ccccc1 (stereo not shown) | 0.463%
COc1cc2c(cc1O)CCN(C(=O)c1ccco1)C2C (stereo not shown) | 0.438%
COc1ccccc1N1CCN(S(C)(=O)=O)CC1 | 5.25%
Cc1cccc(C(=O)O/N=C(\N)Cc2cccc3ccccc23)c1 | 10%
CCCCn1c(=N)n(CC(O)c2ccccc2)c2ccccc21.Cl (stereo not shown) | -36.7%
Cc1ccccc1NS(=O)(=O)c1cc(C(=O)NCc2ccncc2)ccc1Cl | -10.1%
CCc1cccc(NC(=O)Cn2c(=O)c3cccn3c3ccccc32)c1 | 11.5%
CCOC(=O)NC(=O)C(=CNc1cccc(C)c1)C(=O)NC(=O)OCC | 9.86%
Cc1ccc(CN2CCN(Cc3cnn(-c4ccc(Cl)cc4)c3)CC2CCO)o1 (stereo not shown) | -12.6%
O=C(O)c1ccccc1NC(=O)C1C2C=CC(C2)C1C(=O)O (stereo not shown) | 14.2%

Compound | hERG current change (%, negative = inhibition) at 1uM
Cc1ccccc1CNC(=O)C(=O)NCC1CCCN1S(=O)(=O)c1ccccc1 (stereo not shown) | 2.85%
COc1ccc(C2=NCC(CSc3nnnn3C)S2)cc1 (stereo not shown) | 5.15%
O=C(c1ccc2c(c1)OCO2)C1CCCN(Cc2ccc(OC(F)F)cc2)C1 (stereo not shown) | -53%
COc1ccc(NC(=O)CCc2nnc3ccc(N4CCN(c5cccc(OC)c5)CC4)nn23)cc1 | 12.5%
CCOC(=O)C1=C(COC(=O)/C=C/c2cc(OC)c(OC)c(OC)c2)NC(=O)NC1C (stereo not shown) | 15.6%
CCOC(=O)c1[nH]c2ccc(F)cc2c1NC(=O)CCN1CCSCC1 | 7.87%
COc1ccc(S(=O)(=O)N2CCCCCC2)cc1NC(=O)c1ccccc1S(C)(=O)=O | -3.5%
COc1ccc(C(=O)NN/C(=N/S(=O)(=O)c2ccc(C)cc2)c2ccccc2)cc1 | 1.4%
COc1ccc(OC)c(/C=N/NC(=O)CCN2CCN(C(c3ccccc3)c3ccccc3)CC2)c1 | 11.3%
O=S(=O)(/C=C/c1ccccc1)N1CCN(Cc2ccc3c(c2)OCO3)CC1 | -2.01%
CCOC(=O)c1c(NC(=O)CSc2nnnn2-c2ccccc2)sc2c1CC(C)(C)NC2(C)C | -7.13%
Cc1ccnc(NS(=O)(=O)c2ccc(NS(=O)(=O)c3ccc([N+](=O)[O-])cc3)cc2)n1 | 5.17%
O=C(COc1ccccc1F)NCC(c1ccco1)N1CCCC1 (stereo not shown) | 23.5%
COc1ccc(C(=O)NCCn2cc(SCC(=O)Nc3nnc(C)s3)c3ccccc32)cc1 | 0.37%
COc1cc(-c2nc3ccc(C)cn3c2Nc2ccc3c(c2)OCCO3)ccc1O | 13.4%
COc1ccc(S(=O)(=O)N(CCc2ccccc2)CC(=O)O)cc1C | 7.44%
CCOc1ccc(C(=O)N(CC)CC(=O)Nc2ccc3c(c2)OCCO3)cc1 | -4.73%
Cc1cc(=O)n(C)c(=O)n1CCCCCCOc1ccc([N+](=O)[O-])cc1 | -11.1%
Cc1cc(C(=O)NP(=O)(N2CCOCC2)N2CCOCC2)c(C)n1-c1ccc(N(C)C)cc1 | 4.45%
